Source: the DeepSol protein solubility set

Assay: soluble on expression in E. coli; label from the status in PepcDB or PDB records

Row | Substance | soluble on expression in E. coli
1 | AHHHHHHGSAKLAVIRIRGRVNVKRPVRDTLAMLRLHRVNHCVIVDDTPSYLGMLQKAKDYITWGEINAETLAKLIRKRGRLIGNKPVTDEYVKEKLGMTIEEFAQKVVNGEMSLKDLPNLKPVFRLHPPRGGFRGSKKRSFKEGGALGYRGEKINELIERML | soluble
2 | AHHHHHHGSPVDAWIREEVEIPEGVEVTVEGYKVKVKGPKGELEREFFWPGIQIFTEDGNVVIYKDFPRRKDVAIARTFAAHIRNMIKGVTEGFTYKLKVVYSHFPISVKVQGDEVIIENFLGEKAPRKAKILPGVTVKVRGQEIIVEGIDKEAVGQTAANIEQATRITKWDRRIFQDGIYIVEKAGKPITF | not soluble
3 | AIAPKSKRDKKISLTKTTKKGLEAKQNLIEELRKCADIYRYVFVFSVENMRNNKLKDIRTAWRHSRFFFGKNKVMMIALGKGPTDEYKDNLHKLSRFLRGEVGVLFTNKTKDEVQEYFGNFKEVDYARAGNTASMAVTLDEGPLDQFPHSMEPQLRQLGLPTALKKGAVTLIKDFEVCKEGDTLTPEQARILKLFGFEMAEFKLSIKCMWNSESGEFEKLTDGDDDDETKEAEDEDSEGEEGSE | soluble
4 | DIVMTQSPDSLAVSLGERATINCKSSQSVLYSSNSKNYLAWYQQKPGQPPKLLIYWASTRESGVPDRFSGSGSGTDFTLTISSLQAEDVAVYYCAQYYSTPYSFGQGTKLEIKR | soluble
5 | GMSTRLKIVTIHQEPFVYVKPTMSDGTCKEEFTVNGDPVKKVICTGPNDTSPGSPRHTVPQCCYGFCIDLLIKLARTMNFTYEVHLVADGKFGTQERVNNSNKKEWNGMMGELLSGQADMIVAPLTINNERAQYIEFSKPFKYQGLTILVKKGTRITGINDPRLRNPSDKFIYATVKQSSVDIYFRRQVELSTMYRHMEKHNYESAAEAIQAVRDNKLHAFIWDSAVLEFEASQKCDLVTTGELFFRSGFGIGMRKDSPWKQNVSLSILKSHENGFMEDLDKTWVRYQECDS | soluble
6 | MDAMSKASYVKFEVPQDLADKVLEAVRKAKESGKIKKGTNETTKAVERGQAKLVIIAEDVQPEEIVAHLPLLCDEKKIPYVYVSSKKALGEACGLQVATASAAILEPGEAKDLVDEIIKRVNEIKGKTSS | soluble
7 | MDGSATPGPGQAHLKSNSMIYICGECHAENEIKPKDAIRCRECGYRILYKKRCRKLMVYDAR | soluble
8 | MGKDYYQTLGLARGASDEEIKRAYRRQALRYHPDKNKEPGAEEKFKEIAEAYDVLSDPRKREIFDRYGEEGLKGSGPSGGSGGGANGTSFSYTFHGDPHAMFAEFFGGRNPFDTFFGQRNGEEGMDIDDPFSGFPMGMGGFTNVNFGRSRSAQEPARKKQ[gap - about 150 residues]PERIPQTSRTVLEQVLPILEHHHHHH | soluble
9 | MGSDKIHHHHHHMITIKKGLDLPIAGKPAQVIHSGNAVNQVAILGEEYVGMRPSMKVREGDVVKKGQVLFEDKKNPGVIFTAPASGTITAINRGEKRVLQSVVINVEGDEKITFAKYSTEQLNTLSSEQVKQNLIESGLWTALRTRPFSKVPSIESEASSIFVNAMDTNPLAADPSVVLKEYSQDFTNGLTVLSRLFPSKPLHLCKAGDSNIPTADLENLQIHDFTGVHPAGLVGTHIHFIDPVGIQKTVWHINYQDVIAVGKLFTTGELYSERVISLAGPQVKEPRLVRTTIGANLSQLTQNELSAGKNRVISGSVLCGQIAKDSHDYLGRYALQVSVIAEGNEKEFFGWIMPQANKYSVTRTVLGHFSKKLFNFTTSENGGERAMVPIGSYERVMPLDILPTLLLRDLIVGDTDGAQELGCLELDEEDLALCSFVCPGKYEYGSILRQVLDKIEKEG | not soluble
10 | MISGILASPGIAIGKALLLQEDEIVLNTNTISDDQVEAEVERFYTARDKSSAQLEVIKQKALETFGEEKEAIFEGHIMLLEDEELEEEILALIKKEKMSADNAIHTVIEEQATALESLDDEYLKERATDIRDIGTRFVKNALGMHIVSLSEIDQEVVLVAYDLTPSETAQINLNYVLGFACDIGGRTSHTSIMARSLELPAIVGTNDITKKVKNGDTLILDAMNNKIIVNPTQAQIEEAKAVKAAFLAEKEELAKLKDLPAETLDGHRVEVCGNIGTVKDCDGIIRNGGEGVGLYRTEFLFMDRDALPTEEEQYQAYKEVAEAMNGQAVIIRTMDIGGDKDLPYMDLPKEMNPFLGWRAVRISLDRREILRDQLRGILRASAHGKLRVMFPMIISVEEIRELKNAIEEYKAELRTEGHAFDENIEIGVMVETPAAAAIAHHLAKEVSFFSIGTNDLTQYTLAVDRGNEMISHLYNPLSPAVLTVIKQVIDASHAEGKWTGMCGELAGDERATLLLLGMGLDEFSMSGISIPKVKKVIRNANYAEIKAMAEEALALPTAAEIEACVDKFIAAKA | not soluble
11 | MKDIDTLISNNALWSKMLVEEDPGFFEKLAQAQKPRFLWIGCSDSRVPAERLTGLEPGELFVHRNVANLVIHTDLNCLSVVQYAVDVLEVEHIIICGHYGCGGVQAAVENPELGLINNWLLHIRDIWFKHSSLLGEMPQERRLDTLCELNVMEQVYNLGHSTIMQSAWKRGQKVTIHGWAYGIHDGLLRDLDVTATNRETLEQRYRHGISNLKLKHANHK | soluble
12 | MPRSLKKGVFVDDHLLEKVLELNAKGEKRLIKTWSRRSTIVPEMVGHTIAVYNGKQHVPVYITENMVGHKLGEFAPTRTYRGHGKEAKATKKK | soluble
13 | MSLGSDVRDLNALLPAVPSLGGGGGCALPVSGAAQWAPVLDFAPPGASAYGSLGGPAPPPAPPPPPPPPPHSFIKQEPSWGGAEPHEEQCLSAFTVHFSGQFTGTAGACRYGPFGPPPPSQASSGQARMFPNAPYLPSCLESQPAIRNQGYSTVTFDGTPSYGHTPSHHAAQFPNHSFKHEDPMGQQGSLGEQQYSVPPPVYGCHTPTDSCTGSQALLLRTPYSSDNLYQMTSQLECMTWNQMNLGATLKGHSTGYESDNHTTPILCGAQYRIHTHGVFRGIQDVRRVPGVAPTLVRSASETSEKRPFMCAYPGCNKRYFKLSHLQMHSRKHTGEKPYQCDFKDCERRFSRSDQLKRHQRRHTGVKPFQCKTCQRKFSRSDHLKTHTRTHTGEKPFSCRWPSCQKKFARSDELVRHHNMHQRNMTKLQLALEGHHHHHH | not soluble
14 | MSTKEKLISHVMKEEPVGSRSKVTVVGVGMVGMASAISILLKDLCDELAMVDVMEDKLKGEVMDLQHGSLFLKTKIVGDKDYSVTANSKVVVVTAGARQQEGESRLNLVQRNVNIFKFIIPNIVKYSPNCILMVVSNPVDILTYVAWKLSGFPRHRVIGSGTNLDSARFRHLIGEKLHLHPSSCHAWIVGEHGDSSVPVWSGVNVAGVSLQGLNPQMGTEGDGENWKAIHKEVVDGAYEVIKLKGYTSWAIGMSVADLVESIIKNMHKVHPVSTLVQGMHGVKDEVFLSVPCVLGNSGLTDVIHMTLKAEEEKQLQKSAETLWGVQKELTL | soluble
15 | MVRFTGLSLKQTQAIEVLKGHISLPDVEVAVTQSDQASISIEGEEGHYQLTYRKPHQLYRALSLLVTVLAEADKVEIEEQAAYEDLAYMVDCSRNAVLNVASAKQMIEILALMGYSTFELYMEDTYQIEGQPYFGYFRGAYSAEELQEIEAYAQQFDVTFVPCIQTLAHLSAFVKWGVKEVQELRDVEDILLIGEEKVYDLIDGMFATLSKLKTRKVNIGMDEAHLVGLGRYLILNGVVDRSLLMCQHLERVLDIADKYGFHCQMWSDMFFKLMSADGQYDRDVEIPEETRVYLDRLKDRVTLVYWDYYQDSEEKYNRNFRNHHKISHDLAFAGGAWKWIGFTPHNHFSRLVAIEANKACRANQIKEVIVTGWGDNGGETAQFSILPSLQIWAELSYRNDLDGLSAHFKTNTGLTVEDFMQIDLANLLPDLPGNLSGINPNRYVFYQDILCPILDQHMTPEQDKPHFAQAAETLANIKEKAGNYAYLFETQAQLNAILSSKVDVGRRIRQAYQADDKESLQQIARQELPELRSQIEDFHALFSHQWLKENKVFGLDTVDIRMGGLLQRIKRAESRIEVYLAGQLDRIDELEVEILPFTDFYADKDFAATTANQWHTIATASTIYTT | soluble
16 | QVQLQQSGAEVKKPGSSVKVSCKASGGTFSSYTISWVRQAPGQGLEWMGGITPILGIANYAQKFQGRVTITTDESTSTAYMELSSLRSEDTAVYYCARDTVMGGMDVWGQGTTVTVSSASTKGPSVFPLAPSSKSTSGGTSALGCLVKDYFPEPVTVSWNSGALTSGVHTFPAVLQSSGLYSLSSVVTVPSSSLGTQTYICNVNHKPSNTKVDKKVEPKSCDKTSPLFVHHHHHHGDYKDDDDKG | soluble
17 | RPDFCLEPPYAGACRAAAARYFYNAKAGLCQTFAYGACAAKRNNFKSAEDCLRTCGGA | soluble
18 | VVPWSPPQSNWNPWTSSNIDEGPLAFATPEQISMDLKNELMYQLEQDHDLQAILQERELLPVKKFESEILEAISQNSVVIIRGATGCGKTTQVPQFILDDFIQNDRAAECNIVVTQPRRISAVSVAERVAFERGEEPGKSCGYSVRFESILPRPHASIMFCTVGVLLRKLEAGIRGISHVIVDEIHERDINTDFLLVVLRDVVQAYPEVRIVLMSATIDTSMFCEYFFNCPIIEV | soluble
